Results: patent US6500842B1, “8-hydroxy-7-substituted quinolines as anti-viral agents” (Pharmacia & Upjohn Company, priority 1996, dated 2002)
Where “and” joins values, the source holds several entries; their conditions need not be identical. Equal entries are not always repeated. The name of at least one read-out is uncertain.

What was measured:
HCMV polymerase = molecular target: T1, HCMV polymerase (Human cytomegalovirus, UniProt P08546); assay: HCMV polymerase assay (scintillation proximity assay); type: biochemical; conditions: for CMV pol Assay % Inhib: Table 1
T1 construct: made in house; host or cells: recombinant baculovirus-infected SF-9 cells
In short: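 Baculovirus/SF-9-expressed purified enzyme in HEPES pH 7.5, KCl, 4.5 mM MgCl2, BSA, with 90 nM ³H-dTTP, ± 2 mM CHAPS; started with 6 nM biotinylated poly(dA)-oligo(dT), 30 min, stopped with EDTA. Incorporation read by streptavidin SPA beads; IC50 by linear regression.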

HCMV = assay: CMV antiviral assay, cell culture based ELISA in human foreskin fibroblast cells; set-up: species or system human cytomegalovirus (HCMV); conditions: Table 12
Procedure: Compounds are tested for direct antiviral activity against HCMV using a cell culture based assay. An ELISA (enzyme linked immunosorbant assay) format is used as described in W. A. Tatarowicz, N. S. Lurain and K. D. Thompson, J. Virol. Meth., 35:207-215 (1991). Human foreskin fibroblast cells are infected with HCMV at a multiplicity of 0.025 plaque forming units per microtiter plate well for a period of 90 minutes. The virus inocula is removed and a suspension of test compound prepared in tissue culture media is added for a period of 4 days. The growth media is aspirated and replaced with 95% ethanol to allow fixation of virus infected cultures. The ethanol is removed and the wells are washed twice with saline. A solution of 2% dry fat milk, 1% bovine sera albumin prepared in saline is added to wells to allow for non-specific binding of protein material to plastic surfaces for 1 hr. Murine monoclonal antibody prepared in saline directed against the late (65 KD) matrix protein of HCMV is added to test wells for 1 hr. The wells are washed twice and antibody, conjugated with the enzyme horse radish peroxidase, with specificity against murine IgG is added to test wells for 1 hr. Test wells are washed three times with saline. A solution of o-phenylene diamine, a substrate for horse radish peroxidase is added for 15 minutes at which time enzymatic conversion occurs indicating reactivity of the enzyme with its substrate. This conversion is evident as a color reaction which was spectrophoretically monitored at 490 nm. The intensity of the color indirectly reflects the presence of antibody directed against the viral 65 KD matrix antigen. The presence of the viral matrix antigen refects the amount of HCMV replication. Thus, test wells, in which little viral replication has occurred, would have little or no antibody binding and are present with low levels of color. Non-infected wells serve as the assay background control.

[1] = Table 10, Conc 1.30e-005 M, pol type CMV
[2] = Table 10, Conc 1.56e-006 M, pol type CMV
[3] = Table 10, Conc 2.50e-005 M, pol type CMV
[4] = Table 10, Conc 3.13e-006 M, pol type CMV
[5] = Table 10, Conc 5.00e-005 M, pol type CMV
[6] = Table 10, Conc 6.25e-006 M, pol type CMV
[7] = Table 10, Conc 1.00e-004 M, pol type CMV

T1 sequence (P08546 whole entry): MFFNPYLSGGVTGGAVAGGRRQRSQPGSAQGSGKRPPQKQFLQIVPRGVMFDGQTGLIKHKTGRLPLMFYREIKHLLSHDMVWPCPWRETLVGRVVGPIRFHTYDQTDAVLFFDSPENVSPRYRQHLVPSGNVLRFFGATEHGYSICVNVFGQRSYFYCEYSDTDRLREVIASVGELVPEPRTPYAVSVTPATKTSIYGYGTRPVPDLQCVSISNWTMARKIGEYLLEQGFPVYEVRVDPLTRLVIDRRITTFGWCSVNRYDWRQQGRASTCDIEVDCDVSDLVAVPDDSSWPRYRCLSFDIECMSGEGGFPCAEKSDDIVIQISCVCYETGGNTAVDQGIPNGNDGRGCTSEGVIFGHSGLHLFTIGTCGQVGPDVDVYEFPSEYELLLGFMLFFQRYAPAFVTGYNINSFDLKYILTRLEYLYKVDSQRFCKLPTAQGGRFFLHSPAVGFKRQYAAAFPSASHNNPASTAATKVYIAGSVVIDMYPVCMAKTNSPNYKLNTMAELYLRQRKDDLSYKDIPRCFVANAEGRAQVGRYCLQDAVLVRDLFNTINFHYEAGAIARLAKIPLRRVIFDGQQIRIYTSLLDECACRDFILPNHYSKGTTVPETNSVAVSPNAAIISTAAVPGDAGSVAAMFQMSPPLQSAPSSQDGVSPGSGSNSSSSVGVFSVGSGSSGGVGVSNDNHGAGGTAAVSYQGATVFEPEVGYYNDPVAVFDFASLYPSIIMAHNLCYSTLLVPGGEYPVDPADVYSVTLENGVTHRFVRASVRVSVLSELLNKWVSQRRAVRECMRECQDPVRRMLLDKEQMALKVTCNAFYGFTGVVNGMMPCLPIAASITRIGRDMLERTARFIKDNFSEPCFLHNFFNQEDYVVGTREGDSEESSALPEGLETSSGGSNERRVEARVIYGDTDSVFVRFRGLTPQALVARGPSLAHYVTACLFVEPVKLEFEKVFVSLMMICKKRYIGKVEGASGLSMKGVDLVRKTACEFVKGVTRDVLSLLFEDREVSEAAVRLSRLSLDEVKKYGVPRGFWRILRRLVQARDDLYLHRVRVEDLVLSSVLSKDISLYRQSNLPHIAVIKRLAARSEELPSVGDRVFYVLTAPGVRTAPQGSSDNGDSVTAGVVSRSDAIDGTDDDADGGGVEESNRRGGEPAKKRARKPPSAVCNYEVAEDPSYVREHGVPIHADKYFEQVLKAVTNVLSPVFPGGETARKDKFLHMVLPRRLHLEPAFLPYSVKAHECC

| Compound | % Inhib (HCMV polymerase; [1]) [%] | % Inhib (HCMV polymerase; [3]) | % Inhib (HCMV polymerase; [4]) [%] | % Inhib (HCMV polymerase; [5]) [%] | % Inhib (HCMV polymerase; [6]) [%] | further results |
| --- | --- | --- | --- | --- | --- | --- |
| Br.O=S(=O)(NCCCc1ccccc1)c1cc(Cl)c2cccnc2c1O [Example 21, 5-Chloro-8-hydroxy-N-(3-phenylpropyl)-7-quinolinesulfonamide monohydrobromide] | – | – | – | – | – | % Inhib (HCMV polymerase; Conc 1.00e−004 M, Table 2, monohydrobromide): 96.6% and 97.9%; % Inhib (HCMV polymerase; Conc 1.30e−005 M, Table 2, monohydrobromide): 57.2% and 45.1%; % Inhib (HCMV polymerase; Conc 2.50e−005 M, Table 2, monohydrobromide): 85.2% and 69.9%; % Inhib (HCMV polymerase; Conc 3.13e−006 M, Table 2, monohydrobromide): 33.5% and 17.6%; % Inhib (HCMV polymerase; Conc 5.00e−005 M, Table 2, monohydrobromide): 94.4% and 90.8%; % Inhib (HCMV polymerase; Conc 6.25e−006 M, Table 2, monohydrobromide): 43.4% and 35.3% |
| Cc1ccccc1NC(=O)c1ccc2cccnc2c1O | 37.8 | 83.8% and 84.5% | 20.3 | 98.7 | 21.9 | % Inhib (HCMV polymerase; [2]): 17.7% |
| Cc1ccc(NC(=O)c2ccc3cccnc3c2O)c(C)c1 [drawing 279] | 67.9 | 97.6% and 98.9% | 20.7 | 99.8 | 32.4 | % Inhib (HCMV polymerase; [2]): 19% |
| O=C(Nc1cccc(Br)c1)c1ccc2cccnc2c1O | 68.5 | 90.6% and 96.3% | 15.6 | 99.8 | 26.7 | % Inhib (HCMV polymerase; [2]): 10% |
| O=C(Nc1ccc2[nH]ccc2c1)c1ccc2cccnc2c1O | 40.9 | 52% and 91.4% | 17 | 100.9 | 13.3 | % Inhib (HCMV polymerase; [2]): 12.3% |
| Cl.O=C(Nc1ccc2c(c1)Cc1ccccc1-2)c1ccc2cccnc2c1O | 82.9 | 83.6% | 78.1 | 82.8 | 79.8 | % Inhib (HCMV polymerase; [7]): 90.8%; % Inhib (HCMV polymerase; Table 10, Conc 1.00e-005 M, pol type CMV): 74.6%; % Inhib (HCMV polymerase; Table 10, Conc 1.25e-006 M, pol type CMV): 40.9%; % Inhib (HCMV polymerase; Table 10, Conc 2.50e-006 M, pol type CMV): 57.8%; % Inhib (HCMV polymerase; Table 10, Conc 3.13e-007 M, pol type CMV): 13.8%; % Inhib (HCMV polymerase; Table 10, Conc 5.00e-006 M, pol type CMV): 65.3%; % Inhib (HCMV polymerase; Table 10, Conc 6.25e-007 M, pol type CMV): 32.1% |
| O=C(Nc1ccc(Cl)cc1)c1cc(Cl)c2cccnc2c1O [Example 15, 5-Chloro-N-(4-chlorophenyl)-8-hydroxy-7-quinolinecarboxamide] | – | – | – | – | – | CMV pol Assay % Inhib (HCMV polymerase; Conc 1.00E−04 M): 93.4%; CMV pol Assay % Inhib (HCMV polymerase; Conc 1.30E−05 M): 43%; CMV pol Assay % Inhib (HCMV polymerase; Conc 2.50E−05 M): 70.2%; CMV pol Assay % Inhib (HCMV polymerase; Conc 3.13E−06 M): 12.9%; CMV pol Assay % Inhib (HCMV polymerase; Conc 5.00E−05 M): 87.1%; CMV pol Assay % Inhib (HCMV polymerase; Conc 6.25E−06 M): 19.7% |
| Cc1ccc2c(Cl)cc(S(=O)(=O)NCc3ccc(Cl)cc3)c(O)c2n1 [Example 17, 5-Chloro-N-[(4-chlorophenyl)methyl]-8-hydroxy-2-methyl-7-quinolinesulfonamide] | – | – | – | – | – | % Inhib (HCMV polymerase; Conc 1.00e−004 M, Table 2): 97.5%; % Inhib (HCMV polymerase; Conc 1.30e−005 M, Table 2): 57.1%; % Inhib (HCMV polymerase; Conc 2.50e−005 M, Table 2): 89%; % Inhib (HCMV polymerase; Conc 3.13e−006 M, Table 2): 0.7%; % Inhib (HCMV polymerase; Conc 5.00e−005 M, Table 2): 95.5%; % Inhib (HCMV polymerase; Conc 6.25e−006 M, Table 2): 26.4% |
| O=C(Nc1cc(Br)ccc1Br)c1ccc2cccnc2c1O | 65.4 | – | 15 | 100.8 | 19.8 | % Inhib (HCMV polymerase; [2]): 7.9% |
| O=S(=O)(Nc1ccc(Cl)cc1)c1cc(Cl)c2cccnc2c1O [Example 20, 5-Chloro-N-(4-chlorophenyl)-8-hydroxy-7-quinoline-sulfonamide] | – | – | – | – | – | % Inhib (HCMV polymerase; Conc 1.00e−004 M, Table 2): 95.4%; % Inhib (HCMV polymerase; Conc 1.30e−005 M, Table 2): 41.3%; % Inhib (HCMV polymerase; Conc 2.50e−005 M, Table 2): 73.2%; % Inhib (HCMV polymerase; Conc 3.13e−006 M, Table 2): 10.9%; % Inhib (HCMV polymerase; Conc 5.00e−005 M, Table 2): 92%; % Inhib (HCMV polymerase; Conc 6.25e−006 M, Table 2): 25.5% |
| Cl.N#Cc1ccc(NC(=O)c2ccc3cccnc3c2O)cc1 [drawing 331] | – | – | – | – | – | CMV Antiviral Assay % Inh - AV (HCMV; Conc 1.00e+000 uM): 0.0%; CMV Antiviral Assay % Inh - AV (HCMV; Conc 2.00e+000 uM): 48.0%; CMV Antiviral Assay % Inh - AV (HCMV; Conc 4.00e+000 uM): 53.0%; CMV Antiviral Assay % Inh - AV (HCMV; Conc 8.00e+000 uM): 63.0% |
| O=C(Nc1ccc([N+](=O)[O-])cc1Cl)c1ccc2cccnc2c1O | 80.2 | 91.7% and 89.5% | 50.5 | 95.7 | 64.1 | % Inhib (HCMV polymerase; [2]): 30.1% |
| O=C(Nc1ccc(-c2ccccc2)cc1)c1ccc2cccnc2c1O | – | 37.8% | – | – | – | – |
| O=C(Nc1nc2ccc(Cl)cc2s1)c1ccc2cccnc2c1O [Example 13, N-(6-Chloro-2-benzothiazolyl)-8-hydroxy-7-quinolinecarboxamide] | – | – | – | – | – | CMV pol Assay % Inhib (HCMV polymerase; Conc 1.00E−04 M): 33.8%; CMV pol Assay % Inhib (HCMV polymerase; Conc 1.30E−05 M): 18.8%; CMV pol Assay % Inhib (HCMV polymerase; Conc 2.50E−05 M): 26.3%; CMV pol Assay % Inhib (HCMV polymerase; Conc 3.13E−06 M): −12.5%; CMV pol Assay % Inhib (HCMV polymerase; Conc 5.00E−05 M): 17.3%; CMV pol Assay % Inhib (HCMV polymerase; Conc 6.25E−06 M): 15.4% |
| O=C(Nc1ccc(C2CCCCC2)cc1)c1ccc2cccnc2c1O | – | 37.6% | – | – | – | – |
| O=C(NC1=NC(=O)C(c2ccc(Cl)cc2)S1)c1ccc2cccnc2c1O (centres unmarked) [Example 5, N-[5-(4-Chlorophenyl)-4,5-dihydro-4-oxo-2-thiazolyl]-8-hydroxy-7-quinolinecarboxamide] | – | – | – | – | – | CMV pol Assay % Inhib (HCMV polymerase; Conc 1.00E−04 M): 98.7%; CMV pol Assay % Inhib (HCMV polymerase; Conc 1.30E−05 M): 69.3%; CMV pol Assay % Inhib (HCMV polymerase; Conc 2.50E−05 M): 87.2%; CMV pol Assay % Inhib (HCMV polymerase; Conc 3.13E−06 M): 29.1%; CMV pol Assay % Inhib (HCMV polymerase; Conc 5.00E−05 M): 95.9%; CMV pol Assay % Inhib (HCMV polymerase; Conc 6.25E−06 M): 44% |
| Cc1ccc(F)cc1NC(=O)c1ccc2cccnc2c1O [drawing 222] | – | – | – | – | – | % Inhib (HCMV polymerase; [7]): 91.1% and 102.7% |
| O=C(Nc1cccc2cnccc12)c1ccc2cccnc2c1O | – | 39.3% | – | – | – | – |
| COc1ccc(NC(=O)c2ccc3cccnc3c2O)cc1.Cl | 11.8 | 43.1% | 2.5 | 87.6 | 3.4 | % Inhib (HCMV polymerase; [7]): 98.7% and 98.2% |
| Cc1cc(Cl)ccc1NC(=O)c1ccc2cccnc2c1O | 93.6 | 87% and 99.3% | 36.5 | 99.7 | 64 | % Inhib (HCMV polymerase; [7]): 99.6% |
| O=C(Nc1ccc2ncsc2c1)c1ccc2cccnc2c1O | – | 35% | – | – | – | – |
| O=C(Nc1ccc(Br)cn1)c1ccc2cccnc2c1O | 37.5 | 43.2% and 54.9% | 24.7 | 58.1 | 28.6 | % Inhib (HCMV polymerase; [2]): 18% |
| Cl.O=C(Nc1cccc(Cl)c1)c1ccc2cccnc2c1O | 99.7 | 99.8% | 56.8 | 100.8 | 90.6 | % Inhib (HCMV polymerase; [7]): 100.3% and 99.9% |
| Cl.O=C(Nc1cc(F)cc(F)c1)c1ccc2cccnc2c1O | 32.7 | 58.1% | 1.1 | 68.8 | 6.6 | % Inhib (HCMV polymerase; [7]): 80.6% |
